Article PMC3624423, “Tetramerization of SAMHD1 Is Required for Biological Activity and Inhibition of HIV Infection*^([image sbox.jpg])” (The Journal of Biological Chemistry, 2013)

Target: the molecule itself
Assay: SEC

B1: recombinant SAMHD1(LF620AA) (enzyme)
chain: not shown
Does B1 bind?
Result: binds
